Legend:
Test in all cases: microbe, parasite or virus in culture
P. falciparum D6 = conditions: Plasmodium falciparum, D6, 72 h, read-out: SYBR Green D6 IC50
P. falciparum C235 = conditions: Plasmodium falciparum, 72 h, read-out: SYBR Green C235 IC50
P. falciparum W2 = conditions: Plasmodium falciparum, W2, 72 h, read-out: SYBR Green W2 IC50

| SMILES | IC50 (P. falciparum D6) [µM] | IC50 (P. falciparum C235) [µM] | IC50 (P. falciparum W2) [µM] |
| --- | --- | --- | --- |
| Oc1ccc(-c2cncn2CCc2c(Cl)cccc2Cl)cc1 [HGN0098] | 10.2 | 14.4 | 8.38 |
| NC(=O)c1c[nH]nc1NC(=O)c1c[nH]c2ncccc12 [HGN-0002] | > 40 | > 40 | > 40 |
| NC(=O)c1c[nH]nc1NC(=O)c1cncs1 [HGN-0004] | > 40 | > 40 | > 40 |
| Nc1ccn([C@@H]2O[C@H](CNC(=O)c3ccncc3)[C@@H](O)[C@H]2O)c(=O)n1 [HGN-0005] | > 40 | > 40 | > 40 |
| NC(=O)c1c[nH]nc1NC(=O)Cc1cn2ccsc2n1 [HGN-0009] | > 40 | > 40 | > 40 |
| NC(=O)c1c[nH]nc1NC(=O)c1cnc2sccn12 [HGN-0010] | > 40 | > 40 | > 40 |
| O=C([O-])c1cnc(Nc2ccc(-c3ccncc3)cc2)nc1[O-].[Na+].[Na+] [HGN-0013] | > 40 | > 40 | > 40 |
| O=C([O-])c1cnc(Nc2ccc(Br)cc2)nc1[O-].[Na+].[Na+] [HGN-0014] | > 40 | > 40 | > 40 |
| CCOC(=O)c1cnc(Nc2ccc(-c3ccncc3)cc2)[nH]c1=O [HGN-0015] | > 40 | > 40 | > 40 |
| CCOC(=O)c1cnc(NCC2CCCO2)[nH]c1=O (stereo not drawn) [HGN-0017, ethyl 6-oxo-2-(((tetrahydrofuran-2-yl)methyl)amino)-1,6-dihydropyrimidine-5-carboxylate] | > 40 | > 40 | > 40 |
| CC(C)n1cncc1-c1ccc(O)cc1 [HGN-0018] | > 40 | > 40 | > 40 |
| Oc1ccc(-c2cncn2Cc2ccco2)cc1 [HGN-0019] | 11.3 | 13.3 | 13.6 |
| Oc1ccc(-c2cncn2CCc2c[nH]c3ccccc23)cc1 [HGN-0020] | 4.2 | 7.2 | 5.6 |
| Oc1ccc(-c2cncn2Cc2ccccc2)cc1 [HGN-0021] | 6 | 7.7 | 6 |
| Oc1ccc(-c2cncn2CCc2ccccc2)cc1 [HGN-0022] | > 40 | > 40 | > 40 |
| O=C([O-])c1cnc(NCCc2ccc(Cl)cc2)nc1[O-].[Na+].[Na+] [HGN-0028] | > 40 | > 40 | > 40 |
| Oc1ccc(-n2ccnc2)cc1 [HGN-0029] | > 40 | > 40 | > 40 |
| Cn1cncc1C(O)c1ccccc1 (stereo not drawn) [HGN-0031] | > 40 | > 40 | > 40 |
| CCOC(=O)c1cnc(Nc2ccc(-c3ccccc3)cc2)[nH]c1=O [HGN-0033, ethyl 2-((1,1′-biphenyl)-4-ylamino)-6-oxo-1,6-dihydropyrimidine-5-carboxylate] | > 40 | > 40 | > 40 |
| CCOC(=O)c1cnc(Nc2ccc(N3CCCCC3)cc2)[nH]c1=O [HGN-0034, ethyl 6-oxo-2-((4-(piperidin-1-yl)phenyl)amino)-1,6-dihydropyrimidine-5-carboxylate] | > 40 | > 40 | > 40 |
| CCOC(=O)c1cnc(Nc2ccc(N3CCOCC3)cc2)[nH]c1=O [HGN-0037] | > 40 | > 40 | > 40 |
| CCOC(=O)c1cnc(NCCc2ccc(Cl)cc2)[nH]c1=O [HGN-0038, Ethyl 2-((4-chlorophenethyl)amino)-6-oxo-1,6-dihydropyrimidine-5-carboxylate] | > 40 | > 40 | > 40 |
| CCOC(=O)c1cnc(Nc2cccc(-c3ccccc3)c2)[nH]c1=O [HGN-0039] | > 40 | > 40 | > 40 |
| CCOC(=O)c1cnc(Nc2ccc3cn[nH]c3c2)[nH]c1=O [HGN-0040, Ethyl 2-((1H-indazol-6-yl)amino)-6-oxo-1,6-dihydropyrimidine-5-carboxylate] | > 40 | > 40 | > 40 |
| CCOC(=O)c1cnc(Nc2ccc(CC(=O)O)cc2)[nH]c1=O [HGN-0041, 2-(4-((5-(ethoxycaronyl)-6-oxo-1,6-dihydropyrimidin-2-yl)amino)phenyl)acetic acid] | > 40 | > 40 | > 40 |
| CCOC(=O)c1cnc(Nc2ccc3[nH]ncc3c2)[nH]c1=O [HGN-0042, Ethyl 2-((1H-indazol-5-yl)amino)-6-oxo-1,6-dihydropyrimidine-5-carboxylate] | > 40 | > 40 | > 40 |
| O=C([O-])c1cnc(Nc2cccc(-c3ccccc3)c2)nc1[O-].[Na+].[Na+] [HGN-0044, Sodium 2-([1,1′-biphenyl]-3-ylamino)-4-oxidopyrimidine-5-carboxylate] | > 40 | > 40 | > 40 |
| O=C([O-])c1cnc(Nc2ccc3cn[nH]c3c2)nc1[O-].[Na+].[Na+] [HGN-0045, Sodium 2-((1H-indazol-6-yl)amino)-4-oxoidopyrimidine-5-carboxylate] | > 20 | > 20 | > 20 |
| CCOC(=O)c1cnc(NCc2ccco2)[nH]c1=O [HGN-0047, Ethyl 2-((furan-2-ylmethyl)amino)-6-oxo-1,6-diydropyrimidine-5-carboxylate] | > 40 | > 40 | > 40 |

Source: US9890126B2 (priority 2012, dated 2018)
